# Measurements from the supplement of paper PMC12217912.
# This is one part of the list. The full chains were built here from the parent and the listed change. Inactive controls read about 0.05.
# B1: TEV protease; numbered along this chain (parent)
# chain: MGESLFKGPRDYNPISSSICHLTNESDGHTTSLYGIGFGPFIITNKHLFRRNNGTLVVQSLHGVFKVKDTTTLQQHLVDGRDMIIIRMPKDFPPFPQKLKFREPQREERICLVTTNFQTKSMSSMVSDTSCTFPSGDGIFWKHWIQTKDGQCGSPLVSTRDGFIVGIHSASNFTNTNNYFTSVPKNFMELLTNQEAQQWVSGWRLNADSVLWGGHKVFMVKPEEPFQPVKEATQL
# Variants of: B1
# Test: raw area under fraction-flipped curve 0-4 h after induction (AUC4h, not background-subtracted), DNA-recorder readout of cleavage of the substrate (dimensionless); higher = more cleavage of the substrate by the protease variant
# Conditions: temperature: 34 °C; time window: 0-4 h after rhamnose induction
# Procedure: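 In vivo DNA recorder in E. coli TOP10(DE3) ΔrhaA at 34 °C. Each TEVp single-site mutant (parent TEVp 0) is paired with a single-site variant of the 7-mer TEVs (canonical ENLYFQ|S). The substrate sits between flexible linkers in a Bxb1-sfGFP-TEVs-SsrA fusion, so cleavage stabilises Bxb1 and speeds flipping of a recombination array, read by NGS. The value is the raw area under the fraction-flipped curve over 0-4 h after rhamnose induction (AUC4h), with ≥20 reads per time point. It is not background-subtracted; inactive controls average about 0.047.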
# 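Also: Bxb1 expression induced with 0.2% (w/v) L-rhamnose at OD600 near 0.5, cultures sampled hourly, flipped fraction per protease–substrate barcode pair counted by paired-end Illumina sequencing.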
Variant,area with substrate ENAYFQS,area with substrate ENCYFQS,area with substrate ENDYFQS,area with substrate ENEYFQS,area with substrate ENFYFQS,area with substrate ENGYFQS,area with substrate ENHYFQS,area with substrate ENKYFQS,area with substrate ENMYFQS,area with substrate ENQYFQS,area with substrate ENRYFQS,area with substrate ENTYFQS,area with substrate ENVYFQS,area with substrate ENWYFQS,area with substrate ENYYFQS,area with substrate ENPYFQS,area with substrate ENSYFQS,area with substrate ENIYFQS,area with substrate ENNYFQS
MGESLFKGPRDYYPISSSICHLTNESDGHTTSLYGIGFGPFIITNKHLFRRNNGTLVVQSLHGVFKVKDTTTLQQHLVDGRDMIIIRMPKDFPPFPQKLKFREPQREERICLVTTNFQTKSMSSMVSDTSCTFPSGDGIFWKHWIQTKDGQCGSPLVSTRDGFIVGIHSASNFTNTNNYFTSVPKNFMELLTNQEAQQWVSGWRLNADSVLWGGHKVFMVKPEEPFQPVKEATQL [N13Y],0.0715,0.02,0.0492,0.0579,0.065,0.0748,0.0573,0.0532,0.0818,0.0577,0.0612,0.0661,0.0714,0.0651,0.0614,,,,
MGESLFKGPRDYNNISSSICHLTNESDGHTTSLYGIGFGPFIITNKHLFRRNNGTLVVQSLHGVFKVKDTTTLQQHLVDGRDMIIIRMPKDFPPFPQKLKFREPQREERICLVTTNFQTKSMSSMVSDTSCTFPSGDGIFWKHWIQTKDGQCGSPLVSTRDGFIVGIHSASNFTNTNNYFTSVPKNFMELLTNQEAQQWVSGWRLNADSVLWGGHKVFMVKPEEPFQPVKEATQL [P14N],0.0664,0.0772,0.0737,,,0.0526,,,0.018,0.0666,0.0681,0.0637,0.0681,,,0.0535,0.0541,,
MGESLFKGPRDYNPISSSICHLTNESDGHTTSLYGIGFGPFIITNKHLFRRNNGTLVVQSLHGVFKVKDTTTLQQHLVDGRDMIIIRMPKDFPPFPQKLKFREPQREERICLVTTNFQTKSMSSMVSDTSCTFPSGDGIFWKHWIQTKDGQCGSPLVSTRDGFIVGIHSASNFTNTNNYFTSVPKNFMELLTNQEAQQCVSGWRLNADSVLWGGHKVFMVKPEEPFQPVKEATQL [W199C],0.061,0.067,0.0492,0.0594,,0.0654,,0.0519,,0.0542,0.0536,0.0582,,,0.041,,0.0584,,
MGESLFKGPRDYNPISSSICHLTNESDGHTTSLYGIGFGPFIITNKHLFRRNNGTLVVQSLHGVFKVKDTTTLQQHLVDGRDMIIIRMPKDFPPFPQGLKFREPQREERICLVTTNFQTKSMSSMVSDTSCTFPSGDGIFWKHWIQTKDGQCGSPLVSTRDGFIVGIHSASNFTNTNNYFTSVPKNFMELLTNQEAQQWVSGWRLNADSVLWGGHKVFMVKPEEPFQPVKEATQL [K98G],0.0592,,0.0701,0.055,0.0592,0.0816,0.062,0.0595,0.0688,,0.0583,0.0616,0.0887,0.0045,,0.0582,0.0696,0.115,0.0623
MGESLFKGPRGYNPISSSICHLTNESDGHTTSLYGIGFGPFIITNKHLFRRNNGTLVVQSLHGVFKVKDTTTLQQHLVDGRDMIIIRMPKDFPPFPQKLKFREPQREERICLVTTNFQTKSMSSMVSDTSCTFPSGDGIFWKHWIQTKDGQCGSPLVSTRDGFIVGIHSASNFTNTNNYFTSVPKNFMELLTNQEAQQWVSGWRLNADSVLWGGHKVFMVKPEEPFQPVKEATQL [D11G],0.0667,0.0641,0.0602,0.065,0.06,0.0543,0.0581,0.0724,0.0918,0.0626,,0.0623,0.0871,0.0031,0.0635,0.0545,0.0572,0.0991,0.0586
MGESLFKGPRDYNPISSSICHLTNESDGHTTSLYGIGFGPFIITNKHLFRRNNGTLVVQSLHGVFKVKDTTTLQQHLVDGRDMIIIRMPKDFPPFPQKLKFREPQREERIWLVTTNFQTKSMSSMVSDTSCTFPSGDGIFWKHWIQTKDGQCGSPLVSTRDGFIVGIHSASNFTNTNNYFTSVPKNFMELLTNQEAQQWVSGWRLNADSVLWGGHKVFMVKPEEPFQPVKEATQL [C111W],0.0546,0.0919,,0.0613,,0.0515,,,0.0793,0.0614,,0.0604,,0.0657,,0.0787,0.0835,0.0995,0.0428
MGESLFKGPRDYNPISSSICHLTNESDGHTTSLYGIGFGPFIITNKHLFRRNNGTLVVQSLHGVFKVKDTTTLQQHLVDGRDKIIIRMPKDFPPFPQKLKFREPQREERICLVTTNFQTKSMSSMVSDTSCTFPSGDGIFWKHWIQTKDGQCGSPLVSTRDGFIVGIHSASNFTNTNNYFTSVPKNFMELLTNQEAQQWVSGWRLNADSVLWGGHKVFMVKPEEPFQPVKEATQL [M83K],0.0451,0.0528,0.0492,0.0625,,0.0505,,0.067,0.0491,,0.0548,0.0642,0.0626,,0.0205,0.0522,0.0477,,0.0463
MGESLFKGPRDYNPISSSICHLTNESDGHTTSLYGIGFGPFIITNKHLFRRNNGTLVVQSLHGVFKVKDTTTLQQHLVDGRDMIIIRMPKDFPPFPQKLKFREPQREERICLVTTNFQTKSMSSMVSDTSCTFPSGDGIFWKHWIQTKDGQCGSPLVSTRDGFIVGIHSASNMTNTNNYFTSVPKNFMELLTNQEAQQWVSGWRLNADSVLWGGHKVFMVKPEEPFQPVKEATQL [F173M],0.0684,0.0757,0.0689,0.0166,,,,0.0037,0.0785,0.0693,,0.0566,0.0797,,,,0.09,0.109,
MGESLFKGPRDYNPISSSICHLTNESDGHTTSLYGIGFGPFIITNKHLFRRNNGTLVVQSLHGVFKVKDTTTLQQHLVDGRDMIIIRMPKDFPPFPQKLKFREPQREERICLVTTNFQTKSMSSMVSDTSCTFPSGDGIFWKHWIITKDGQCGSPLVSTRDGFIVGIHSASNFTNTNNYFTSVPKNFMELLTNQEAQQWVSGWRLNADSVLWGGHKVFMVKPEEPFQPVKEATQL [Q146I],0.069,,0.0523,,0.0491,0.0795,0.0674,0.0639,,0.0576,0.0373,,0.0616,,,0.0598,0.0624,,
